This is an account of results in ChEMBL document CHEMBL4888484, “Replenishing the malaria drug discovery pipeline: Screening and hit evaluation of the MMV Hit Generation Library 1 (HGL1) against asexual blood stage Plasmodium falciparum ,using a nano luciferase reporter read-out” (2022).

The subject of this assay is Plasmodium falciparum. Description: Primary screen in NF54 nanoGlo assay, in single point, at 2uM, 72h; a lower Z score goes with more inhibition. Type of assay: functional, Erythrocyte. Conditions: timepoint 72 hour.

The campaign covered roughly 150,000 compounds. About 540 (0.36%) showed an effect of 50% or more. The list shows a part of the results.

For `CC(=O)N1CCn2c(nnc2[C@@H]2CCCN2S(=O)(=O)c2cc(F)ccc2F)C1`, the % Inhibition (commonly the relative decrease from the control value, in per cent) is recorded as 33% and the Z score is reported as -0.36.

Take `Nc1nccc(N2CCC[C@H](CNC(=O)c3ccoc3)C2)n1`: the “% Inhibition” value is 2% and the Z score is -0.39.

Turning to `CS(=O)(=O)CCCN1CC2CCCCC21c1ccccc1` (centres undefined), the “% Inhibition” value was -8% and the Z score turned out to be 0.95.

For `CCOC1(C(=O)N2CCc3nc[nH]c(=O)c3C2)CCCC1`, the “% Inhibition” value is listed as -5% and the Z score is listed as 0.55.

With `O=C(NCCn1cnnn1)c1csc(C2CCCCC2)c1`, the “% Inhibition” value is -10% and the Z score is 1.19.

With `O=C1CC[C@H](C(=O)Nc2ncc(-c3cccc(Cl)c3)s2)N1`, the “% Inhibition” value is on record as -9% and the Z score was 1.25.

For `O=C1CN(C(=O)c2[nH]nc(C3CC3)c2Br)CCN1`, the “% Inhibition” value is reported as -6% and the Z score is reported as 0.75.

In the case of `COc1ccc(C)c(S(=O)(=O)N[C@@H](C)c2nccs2)c1`, the “% Inhibition” value came out at 0% and the Z score was determined as 0.04.

Consider `Cc1cc(C)c(O)c(C(=O)N2CCN(C(=O)c3cc(C)no3)CC2)c1`, for which the “% Inhibition” value is listed as -5% and the Z score came to 0.77.

With `CC(C)n1nnnc1-c1ccccc1NC(=O)N[C@H]1CCCC[C@@H]1O`, the “% Inhibition” value is reported as -12% and the Z score is listed as 1.47.

Take `COc1ccc(N[C@@H](C)Cc2cnn(C)c2)cn1`: the “% Inhibition” value is -9% and the Z score is 0.79.

For the molecule `COc1ccc(CNC(=O)N2CCCN(C3CCC3)CC2)cc1OC`, the “% Inhibition” value is recorded as -8% and the Z score is 1.39.

For the molecule `Cc1nc(-c2ccc(N3CCN(C(=O)c4cccc(F)c4)CC3)nc2)sc1C`, the “% Inhibition” value is reported as -9% and the Z score was found to be 1.56.

`COc1ccc(COC(=O)c2ncoc2C(C)C)cn1`: the “% Inhibition” value is listed as -3% and the Z score came out at 0.59.

As to `CCc1nnc(CN(C)c2nc(C)nc3sccc23)o1`, the “% Inhibition” value was -1% and the Z score is on record as 0.19.

For `O=S(=O)(c1ccc2c(c1)CCCC2)N1CCN(c2cnccn2)CC1`, the “% Inhibition” value is listed as -1% and the Z score was found to be 0.13.

As for `COc1cc(Cl)cc(CN(C)CCC[C@H]2CCCO2)c1OC`, the “% Inhibition” value is reported as -2% and the Z score turned out to be 0.31.

In the case of `C#CCCCS(=O)(=O)Nc1c(-c2cccc(F)c2)n[nH]c1C1CC1`, the “% Inhibition” value amounted to 2% and the Z score is reported as -0.28.

For the molecule `COC(C)(C)CC(=O)Nc1c(C)n[nH]c1C`, the “% Inhibition” value was -4% and the Z score turned out to be 0.31.

For `O=C1N(Cc2cccc(F)c2F)CCC[C@@]1(O)CNC1CCCCCC1`, the “% Inhibition” value is recorded as -18% and the Z score is listed as 2.62.

Take `Cc1ccc(NC(=O)CN2CC3CCCCN3CC2C)cc1` (centres undefined): the “% Inhibition” value is -2% and the Z score is 0.18.

Take `Cc1ccc(CNC(=O)c2noc(C)c2Cn2nc(C)cc2C)cc1`: the “% Inhibition” value is on record as 6% and the Z score is listed as -0.98.

Consider `Clc1cnccc1-c1csc(-c2ccoc2)n1`, for which the “% Inhibition” value is reported as -16% and the Z score turned out to be 1.33.

`Cc1nn(C)c(C)c1C(=O)Oc1cccc(-n2ccnn2)c1`: the “% Inhibition” value was -22% and the Z score is on record as 2.5.

Take `O=C(CC[C@H]1CCCN(C(=O)c2cccc(Cl)c2F)C1)N1CCCC1`: the “% Inhibition” value is reported as -13% and the Z score is 1.93.

Consider `CC(C)N1CCc2c(C#N)c(NCCCN3CCOCC3)n3cnnc3c2C1`, for which the “% Inhibition” value is given as -13% and the Z score amounted to 1.39.

In the case of `COc1ccc(Cc2c(C)nc(C)nc2N2CCN(C(=O)C3CCCC3)CC2)cc1`, the “% Inhibition” value is reported as -11% and the Z score was 1.36.

Turning to `C[C@@H](CN(C)C(=O)c1conc1C(C)(C)N)c1ccccc1`, the “% Inhibition” value stood at 9% and the Z score is -1.11.

Regarding `CCCc1cnc(C)nc1-c1cccc(C(=O)NCCN2CCCC2)c1`, the “% Inhibition” value is given as -1% and the Z score is on record as 0.23.

With `COc1cccc(-n2c(=O)c(C(=O)NC3CCCC3)c(O)c3cccnc32)c1`, the “% Inhibition” value is recorded as -12% and the Z score was 1.59.

With `COc1cccc(-c2ccc(=O)n(CCC(=O)N3CCN(Cc4ccc5c(c4)OCO5)CC3)n2)c1`, the “% Inhibition” value was found to be 31% and the Z score is -0.15.

Consider `Cn1cnc2c1CCN(C[C@H](O)c1ccc(F)cc1)C2`, for which the “% Inhibition” value is listed as -6% and the Z score is 0.87.

In the case of `CC(C)(CNCC(C)(C)c1ccccc1)NS(C)(=O)=O`, the “% Inhibition” value is recorded as 2% and the Z score is -0.29.

Turning to `Cc1ncsc1CN[C@@H](C)C1=CCCCC1`, the “% Inhibition” value is -12% and the Z score is 2.37.

As for `CCn1nc(C)c(CCN(C)C(=O)Nc2cccc(Cl)c2C)c1C`, the “% Inhibition” value is -7% and the Z score is given as 1.3.

For the molecule `C[C@H](O)CC(C)(C)CNC(=O)NCc1coc2ccccc12`, the “% Inhibition” value is reported as -5% and the Z score is listed as 0.55.

With `[2H]C1=C(C([2H])([2H])[2H])N(CC)C(=O)N[C@@H]1c1cc(Cl)ccc1O`, the “% Inhibition” value is recorded as -6% and the Z score worked out at 0.69.

For `Cc1cc2c(cc1S(=O)(=O)N1CCC(C(=O)Nc3ccc(C(C)C)cc3)CC1)OCC(=O)N2`, the “% Inhibition” value was -8% and the Z score is listed as 0.97.

`CCCn1nc(C2CC2)nc1-c1c[nH]c2ccccc12`: the “% Inhibition” value is on record as -12% and the Z score is recorded as 2.47.

Regarding `Cc1ccc(CCC(=O)N[C@H]2COCC[C@@H]2O)cc1C`, the “% Inhibition” value was found to be 0% and the Z score was 0.02.

Turning to `COc1ccc2c(c1)Oc1ccccc1N=C2N1CCN(C(=O)Nc2ccc(Cl)cc2)[C@@H](C)C1`, the “% Inhibition” value was -14% and the Z score is reported as 1.41.

`C[C@@H]1CN(C(=O)NCc2ccc(Cl)cc2)C[C@]1(C)O`: the “% Inhibition” value was -8% and the Z score was found to be 0.92.
